Source: PubChem BioAssay (Tox21)
Several values for one entry are separate records, joined by “and”; a condition that tells them apart may be missing. Identical values can stand only once. This list was built around the results that the source calls inconclusive (neither active nor inactive); the mix of calls is not that of the screen. For part of these data: A potency beside an inconclusive call is a rough fit, not a confirmed value. Activity calls are given as the source filed them. Unless noted, the call rests on the fitted dose curve; in most records, active means well fitted curve in the direction sought with a large enough effect in the repeat runs; inconclusive means weak or mixed curves; inactive means no such curve, though single readings can be large; an effect the other way counts as inactive or inconclusive.

How the values were obtained:
[1] = A CellTox Green Cytotoxicity Assay to monitor cytotoxicity in HepG2 cells - 40 hour (AID 1224879); settings: CellTox Green fluorescence; series mostly up to 76.8 µM; further: nearly all actives have a fitted effect of over 40% in size; further: potency means the concentration at half of the fitted maximal effect
Method in brief: (§1)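 HepG2 cells, 600/well, preincubated 5 h with CellTox Green dye, then exposed to Tox21 compounds in DMSO at 37 C for up to 40 h. Dead-cell DNA fluorescence read at the indicated time point.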

[2] = qHTS RealTime-Glo MT Cell Viability Assay in HEK293 cells - 0 hour (AID 1224880); settings: RealTime-Glo luminescence; series mostly up to 76.8 µM; further: nearly all actives have a fitted effect of over 45% in size; further: potency means the concentration at half of the fitted maximal effect; on activity change, negative = cytotoxicity: top concentration of the series differs between compounds; on the % scale 0 is the no-effect control and ±100 the full control effect
Method in brief: (§2)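 600 cells/well were plated with the nonlytic NanoLuc/prosubstrate reagent, pre-incubated 5 h, then given 23 nL of compound in DMSO. Incubation at 37 C for 40 h, with luminescence from viable-cell-reduced substrate read repeatedly from 0 h.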

[3] = A CellTox Green Cytotoxicity Assay to monitor cytotoxicity in HepG2 cells - 32 hour (AID 1224883); settings: CellTox Green fluorescence; series mostly up to 76.8 µM; further: nearly all actives have a fitted effect of over 50% in size; further: potency means the concentration at half of the fitted maximal effect
Method in brief: as §1

[4] = qHTS RealTime-Glo MT Cell Viability Assay in HepG2 cells - 0 hour (AID 1224889); settings: RealTime-Glo luminescence; series mostly up to 76.8 µM; further: potency means the concentration at half of the fitted maximal effect; nearly all actives have a fitted effect of over 50% in size
Method in brief: (§3)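 Tox21 10K library screened in qHTS format on HepG2 cells carrying RealTime-Glo reagents. Compounds were added after a 5 h preincubation, and the luminescent signal from continuous culture was measured repeatedly during 40 h treatment.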

[5] = molecular target: Androgen receptor (Homo sapiens) (UniProt P10275); assay: qHTS assay to identify small molecule antagonists of the androgen receptor (AR) signaling pathway using the MDA cell line in the presence of 0.5 nM R1881 (AID 1259243); settings: MDA-kb2 MMTV-luciferase, R1881 0.5 nM, 16 h; series mostly up to 92.4 µM; further: on the % scale 0 is the no-effect control and ±100 the full control effect; nearly all actives have a fitted effect of over 50% in size
UniProt P10275, sequence (P10275 whole entry, looked up): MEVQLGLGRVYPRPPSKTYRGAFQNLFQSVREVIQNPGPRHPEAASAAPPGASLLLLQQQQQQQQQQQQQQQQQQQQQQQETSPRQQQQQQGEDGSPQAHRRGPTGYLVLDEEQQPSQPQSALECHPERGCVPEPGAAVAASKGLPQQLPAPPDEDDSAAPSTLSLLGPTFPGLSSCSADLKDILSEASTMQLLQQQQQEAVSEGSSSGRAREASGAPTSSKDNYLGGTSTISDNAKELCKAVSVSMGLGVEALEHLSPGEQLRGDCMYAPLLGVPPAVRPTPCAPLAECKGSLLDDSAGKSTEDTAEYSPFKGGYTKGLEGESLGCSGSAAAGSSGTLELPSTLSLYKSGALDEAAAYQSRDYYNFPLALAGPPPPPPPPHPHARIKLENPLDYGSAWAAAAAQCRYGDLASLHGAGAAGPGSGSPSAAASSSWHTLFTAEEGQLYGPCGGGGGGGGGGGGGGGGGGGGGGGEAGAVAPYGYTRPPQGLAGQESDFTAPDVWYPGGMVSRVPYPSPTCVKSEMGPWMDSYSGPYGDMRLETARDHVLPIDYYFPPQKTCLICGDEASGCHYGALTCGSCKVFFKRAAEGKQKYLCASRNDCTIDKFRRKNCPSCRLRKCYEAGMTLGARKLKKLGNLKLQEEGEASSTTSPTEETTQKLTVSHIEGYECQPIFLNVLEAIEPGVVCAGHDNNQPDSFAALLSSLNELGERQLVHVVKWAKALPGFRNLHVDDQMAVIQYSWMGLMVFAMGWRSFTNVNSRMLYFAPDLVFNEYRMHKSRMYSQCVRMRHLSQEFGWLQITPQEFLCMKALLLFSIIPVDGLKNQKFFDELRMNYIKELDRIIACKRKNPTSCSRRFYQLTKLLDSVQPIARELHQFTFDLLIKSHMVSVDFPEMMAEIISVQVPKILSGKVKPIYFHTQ
Method in brief: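 MDA-kb2 cells (MMTV-luciferase, responsive to AR and GR) at 3,000/well, rested 5 h at 37C, 0% CO2, then given compounds plus 0.5 nM R1881 (final) for 16 hr. Luciferase read with ONE-Glo after 30 min at room temperature.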

[6] = A CellTox Green Cytotoxicity Assay to monitor cytotoxicity in HepG2 cells - 24 hour (AID 1224878); settings: CellTox Green fluorescence; series mostly up to 76.8 µM; further: nearly all actives have a fitted effect of over 45% in size; further: potency means the concentration at half of the fitted maximal effect; on Cytotoxicity: on the % scale 0 is the no-effect control and ±100 the full control effect
Method in brief: as §1

[7] = qHTS RealTime-Glo MT Cell Viability Assay in HEK293 cells - 8 hour (AID 1224887); settings: RealTime-Glo luminescence; series mostly up to 76.8 µM; further: potency means the concentration at half of the fitted maximal effect; nearly all actives have a fitted effect of over 50% in size
Method in brief: as §2

[8] = qHTS assay to identify small molecule phospholipidosis (PLD) inducers (AID 1259344; active means well fitted curve in the direction sought with a large enough effect; inconclusive means small, poorly fitted or top-dose-only effect, or another doubt; inactive means no such curve, though single readings can be large; an effect the other way counts as inactive or inconclusive; further: on the % scale 0 is the no-effect control and ±100 the full control effect); settings: HepG2 phospholipidosis, LipidTOX Red imaging, 24 h; series mostly up to 38.3 µM
Method in brief: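 Quantitative HTS in HepG2: compound plus LipidTOX Red dye for 24 h, paraformaldehyde fixation with Hoechst 33342, widefield high-content imaging; amiodarone as positive and DMSO as negative control.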

[9] = A CellTox Green Cytotoxicity Assay to monitor cytotoxicity in HEK293 cells - 32 hour (AID 1224881); settings: CellTox Green fluorescence; series mostly up to 76.8 µM; further: nearly all actives have a fitted effect of over 40% in size; further: potency means the concentration at half of the fitted maximal effect
Method in brief: (§4)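 HEK293 cells, 600/well, were preincubated 5 hours and then exposed to compounds at 37 C for up to 40 hours. A cell-impermeant cyanine dye staining dead-cell DNA was read by fluorescence at 0, 8, 16, 24, 32 and 40 h time points.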

[10] = A CellTox Green Cytotoxicity Assay to monitor cytotoxicity in HEK293 cells - 8 hour (AID 1224884); settings: CellTox Green fluorescence; series mostly up to 76.8 µM; further: potency means the concentration at half of the fitted maximal effect; nearly all actives have a fitted effect of over 35% in size
Method in brief: as §4

[11] = qHTS RealTime-Glo MT Cell Viability Assay in HEK293 cells - 24 hour (AID 1224886); settings: RealTime-Glo luminescence; series mostly up to 76.8 µM
Method in brief: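 Luminescence generated by NanoLuc from substrate produced by living HEK293 cells served as the viability signal. Each value reflects the reading at its stated time point during continuous 40 h compound exposure at 37 C.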

[12] = qHTS assay to identify small molecule antagonists of the estrogen receptor alpha (ER-alpha) signaling pathway using the BG1 cell line in the presence of 0.1 nM 17-beta-estradiol - cell viability counter screen (AID 1259241); settings: VM7Luc4E2 (BG1) viability, CellTiter-Fluor protease, 22 h, 0.1 nM estradiol agonist added; series mostly up to 92.4 µM; further: nearly all actives have a fitted effect of over 40% in size; further: potency means the concentration at half of the fitted maximal effect; on activity change, negative = cytotoxicity: on the % scale 0 is the no-effect control and ±100 the full control effect
Method in brief: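 CellTiter-Fluor read (30 min, 37C) on ER-alpha/ERE-luc VM7Luc4E2 cells; 22 hr compound treatment; agonist 0.1 nM E2 final; same-well multiplex.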

[13] = qHTS RealTime-Glo MT Cell Viability Assay in HepG2 cells - 16 hour (AID 1224885); settings: RealTime-Glo luminescence; series mostly up to 76.8 µM; further: nearly all actives have a fitted effect of over 50% in size; further: potency means the concentration at half of the fitted maximal effect
Method in brief: as §3

[14] = A CellTox Green Cytotoxicity Assay to monitor cytotoxicity in HEK293 cells - 16 hour (AID 1224888); settings: CellTox Green fluorescence; series mostly up to 76.8 µM; further: potency means the concentration at half of the fitted maximal effect; nearly all actives have a fitted effect of over 35% in size
Method in brief: as §4
Tags describe the fitted curve by direction and shape.

## CCN(CC)C(=O)SCc1ccc(Cl)cc1
[1]
  Potency: inactive

## C1CCNCC1
[1]
  Potency: inactive

## CC#C[C@]1(O)CC[C@H]2[C@@H]3C[C@H](C)C4=CC(=O)CC[C@]4(C)[C@H]3CC[C@@]21C
[1]
  Potency: inconclusive: 26.8 µM [activator, single point]
[2]
  Potency: inconclusive: 15.1 µM [falling, partial curve]
[3]
  Potency: inactive
[4]
  Potency: active: 2.68 µM
[5]
  Potency: inactive

## C[C@]12C=CC(=O)C=C1CC[C@@H]1[C@@H]2CC[C@@]2(C)[C@H]1CC[C@]2(C)O
[1]
  Potency: inconclusive: 26.8 µM [activator, single point]

## CC(=O)/C=C/c1ccc2c(c1)OCO2
[6]
  Potency: inconclusive: 55.2 µM [activator, partial curve, poor fit]
[7]
  Potency: inconclusive: 55.2 µM [cytotoxic, partial curve, poor fit]

## C=C1C[C@@H]2[C@H](CC[C@]3(C)C(=O)CC[C@@H]23)[C@@]2(C)C=CC(=O)C=C12
[6]
  Potency: inactive
[4]
  Potency: inconclusive: 26.8 µM [cytotoxic, single point]
[8]
  Potency: inactive

## C=CC(=O)NCNC(=O)C=C
[1]
  Potency: inconclusive: 54.9 µM [activator, single point]

## CCCCOC(=O)COC(=O)c1ccccc1C(=O)OCCCC
[1]
  Potency: inactive

## c1ccc2c(c1)sc1ccccc12
[1]
  Potency: inconclusive: 54.9 µM [activator, single point]
[9]
  Potency: inconclusive: 26.8 µM [activator, single point]
[3]
  Potency: inconclusive: 54.9 µM [activator, single point]

## C[CH2][Hg][N]1C(=O)C2C(C1=O)C1(Cl)C(Cl)=C(Cl)C2(Cl)C1(Cl)Cl (configuration not stated)
[1]
  Potency: active: 6.57 µM
[2]
  activity change, negative = cytotoxicity: inactive: -4.29% [at 15.8 µM]
[9]
  Potency: active: 4.65 µM
[3]
  Potency: active: 8.27 µM
[7]
  Potency: active: 3.69 µM

## O=C(NCO)NCO
[1]
  Potency: inactive

## O=[N+]([O-])/N=C1\NCCN1Cc1ccc(Cl)nc1
[1]
  Potency: inactive

## CCCCN(CCCC)SN(C)C(=O)Oc1cccc2c1OC(C)(C)C2
[1]
  Potency: inactive
[9]
  Potency: inactive
[10]
  Potency: inconclusive: 99.3 µM [activator, partial curve, poor fit]
[11]
  Potency: inconclusive: 44.4 µM [cytotoxic, single point] and inconclusive: 49 µM [cytotoxic, single point]
[7]
  Potency: inconclusive: 35.2 µM [cytotoxic, partial curve] and inconclusive: 38.9 µM [cytotoxic, partial curve, poor fit]
[12]
  Potency: inactive

## Cc1ccc(N)cc1
[1]
  Potency: inactive

## CC(=O)C=C(C)C
[1]
  Potency: inactive

## COC(=O)C(Br)CBr (configuration not stated)
[1]
  Potency: inactive
[9]
  Potency: inactive
[13]
  Potency: inactive

## O=C(c1ccccc1)C(Cl)Cl
[1]
  Potency: inconclusive: 54.9 µM [activator, partial curve, poor fit]
[9]
  Potency: active: 34.7 µM
[13]
  Potency: inconclusive: 61.6 µM [cytotoxic, partial curve, poor fit]
[7]
  Potency: inconclusive: 30.9 µM [cytotoxic, partial curve, poor fit]

## O=[N+]([O-])C(Br)Br
[1]
  Potency: inconclusive: 55 µM [activator, single point]
[9]
  Potency: inconclusive: 12.3 µM [activator, single point]
[3]
  Potency: inconclusive: 55 µM [activator, partial curve, poor fit]
[14]
  Potency: inconclusive: 12.3 µM [activator, single point]

## COc1ccc2c(c1OC)C(=O)O[C@@H]2[C@H]1c2cc3c(cc2CCN1C)OCO3
[6]
  Potency: inactive
[12]
  Potency: inconclusive: 6.05 µM [cytotoxic, full curve]

## Cc1cc(O)ccc1Cl
[1]
  Potency: inconclusive: 21.9 µM [activator, single point]

## CCCCCCBr
[1]
  Potency: inactive

## COC(=O)c1ccccc1S(=O)(=O)NC(=O)Nc1nc(C)nc(OC)n1
[1]
  Potency: inactive
[2]
  Potency: inactive

## Nc1cccnc1
[1]
  Potency: inactive

## CC(=O)CCc1ccc2c(c1)OCO2
[1]
  Potency: inactive

## O=[N+]([O-])c1ccc2ccc3cccc4ccc1c2c34
[1]
  Potency: inconclusive: 38.9 µM [activator, partial curve, poor fit]
[9]
  Potency: inconclusive: 54.9 µM [activator, single point]
[10]
  Potency: inconclusive: 21.9 µM [activator, single point]
[14]
  Potency: inconclusive: 54.9 µM [activator, single point]
[12]
  Potency: inconclusive: 21.7 µM [cytotoxic, partial curve]
